Some of the results follow.
B1: ENSG00000156976:stop:overlap|stop_codon|ENSG00000156976|stop_codon|NA|stop_codon (ssRNA)
RNA: GGGAGUUCUACAGUCCGACGAUCCUUUGGUUAUAAAUUAUGAUCUACCUACCAAUCGUGAAAACUAUAUUCACAGGAGUCGAUAGCAGCAGUUGGUGACGAGAUGGCACUCAGAAACGGCGUUGACGUAAUUUAGGACGUGGACAACAGAGGAUUGAGCAUCA
B2: chr10:71816642:71816777:-|3pUTR|ENSG00000197746|msi1_unk|total|mutant (ssRNA)
RNA: GGGAGUUCUACAGUCCGACGAUCUUGUUUGGGGUUCUGUGGGUUUGGGUGGGAAGAGGGCCAUCUGCCUGAAUGUAACCUGCCCGCUCUCCGAAGGCCCUGCGGGCCUGGCUUGUGUGAGCGUGUGGACAGUGGUGGCCGCGCCAACAGAGGAUUGAGCAUCA
B3: chr11:73394502:73394603:+|CDS|ENSG00000054967|msi1|total|mutant (ssRNA)
RNA: GGGAGUUCUACAGUCCGACGAUCCACCAUCUCCACACCGUGCAGGGCCUGGCCUCGCUCUCUGGCCCCUGCUGCUCCCGCUGCCGCCAGAAGAAGUGGCCCGAGGUGCUGCUGUCCCCUGAGGCUGCCGCCGCCACUACUCCUCAACAGAGGAUUGAGCAUCA
B4: chr12:103777333:103777434:-|3pUTR|ENSG00000111696|msi1|FALSE|unique (ssRNA)
RNA: GGGAGUUCUACAGUCCGACGAUCUCCUGAACAUUUACGGGCUAUGCAUUGGGAACUGCAGGGGCACAGUGAUGGGCAAAGAUUAGCUGCUUCCAGAAGGCUGAUUUCGUGGGCUCCACAAUGGUAAAACGCUGCUGUGAGUGGCAACAGAGGAUUGAGCAUCA
B5: chr18:62902975:62903076:+|CDS|ENSG00000081913|unk|FALSE|unique (ssRNA)
RNA: GGGAGUUCUACAGUCCGACGAUCAGUGGACUUUCUACAGCAUGUUACUCAGCUUGACCUACGAGACAAUAAGCUUGGUGAUCUAGAUGCUAUGAUUUUCAACAACAUUGAAGUUUUACACUGUGAAAGGAAUCAACUGGUCACCAACAGAGGAUUGAGCAUCA
B6: chr16:30610213:30610351:-|CDS|ENSG00000289491|control|control|control (ssRNA)
RNA: GGGAGUUCUACAGUCCGACGAUCCUCCGGUCAAUAAAAUCGAUAGCUGGAAGCUGCCUGUGUUCCAGGCAAAGGCGGUGCGGUAGCAGCGCCGCCAUUUUCCCCGAAGGCAUCUUCCGGUGCCUUUCACCCAAGUUCGGGCAGCAACAGAGGAUUGAGCAUCA
B7: chr6:151351738:151351839:+|CDS|ENSG00000131016|msi1|total|mutant (ssRNA)
RNA: GGGAGUUCUACAGUCCGACGAUCGGUGGUGGGGCAGACCACCCCAGAAAGCUUUGAAAAAGCUCCUCAAGUCACAGAGAGCACCGAGUCCAGUGAGCUUGUAACCACUUGUCAAGCCGAAACCUCCGCUGGGGUAAAAUCACACAACAGAGGAUUGAGCAUCA
B8: chr15:76949589:76949706:+|3pUTR|ENSG00000117906|msi1_unk|total|mutant (ssRNA)
RNA: GGGAGUUCUACAGUCCGACGAUCAUAAAUUUUUGUUUUUGUUCUAAGCCGAUUUAAUUUGGGAACUGACAGGACAAUGUUUUCCGGUUCCGCAUUUUGUUUAAAAACCUUUAAAGAAACCUUCCGAAGGACUCCGACCUCACACAACAGAGGAUUGAGCAUCA
B9: chr12:101746137:101746238:-|3pUTR|ENSG00000111670|msi1|FALSE|unique (ssRNA)
RNA: GGGAGUUCUACAGUCCGACGAUCGGUUAGUAAAUUAUUGCAGGCCACCUGUGUCUUUGUCAUACAUUCUUCUUGCUGUUGUUUAGUUUGUUUUUUUUCAAACAACCCUCUAAAAAUGUAAAAACCAUGUUUAGCUUGCAGCUGCAACAGAGGAUUGAGCAUCA
B10: chr10:72011937:72012038:+|3pUTR|ENSG00000122863|msi1|FALSE|unique (ssRNA)
RNA: GGGAGUUCUACAGUCCGACGAUCCAUACACCGCAGGUGGUCACCGAGUUAUUUUCCAAAAGCUGAGGAACAUAAAGCAAAUUUAGGCUUUUGUCCUUCUGCAAUACAUGCACUUGAAAAUAAACAGAAAAGAGAUGUUUAAUACAACAGAGGAUUGAGCAUCA
B11: chr4:57023444:57023561:+|CDS|ENSG00000047315|unk|total|mutant (ssRNA)
RNA: GGGAGUUCUACAGUCCGACGAUCGAAUUGGAGAGCACCAACCGACGCUAUACCAAGAGAGACUGCCGCACUUUUCUCAGAACCCGCGAGACGGGCAUUGUGGAUCAGGUUAUGGUAACUCUCAAUCAGGAAGGAUAUAAAUUUCAACAGAGGAUUGAGCAUCA
B12: chr19:41261474:41261596:+|3pUTR|ENSG00000167601|msi1|total|mutant (ssRNA)
RNA: GGGAGUUCUACAGUCCGACGAUCUCUAAAGGUCCACAGGUCCCGACUAUCCGGUGCAAUUUCAAGGUUCUAACCCUAUACUGCCGUAUUCUUUGGGGUGCCCCUCUCCUUCUCCGCUAUCAUUGCUUCCUCCUCCCCAACUGUCAACAGAGGAUUGAGCAUCA
B13: chr3:49657245:49657349:+|CDS|ENSG00000164061|unk|total|mutant (ssRNA)
RNA: GGGAGUUCUACAGUCCGACGAUCCAGCCGCCGUGGCAUCAAGAAGCGGCACUCCAUGCCACGCCUGCGGGAUGCCUGUGAGCCCGAGUCUGGGACUGAGCCCUGUGUGGUCAGGAGGAUUGCCGACAGCAGCGUGCAGACAGACAACAGAGGAUUGAGCAUCA
B14: ENSG00000198589:be:win_2251|CDS|ENSG00000198589|bound_else_gene|NA|bound_elsewhere_windowed (ssRNA)
RNA: GGGAGUUCUACAGUCCGACGAUCGCCCCAAAGAGGAAAGCAGAAGUCAUGCUUGGACAUGGAUUGUUUUCAUUGCUAGCUGAAAGGCUCAUGCUUCAGACAAAUUUAAUCACAAUGACCACAUAUAAUGUGCUGUUUGAGAUUCAACAGAGGAUUGAGCAUCA

Biological target: MSI1 full-length (mouse, UniProt Q61474 1-362)
Experiment: nsRBNS (natural sequence RNA bind-n-seq); RBNS binding buffer (assumed for nsRBNS): 25 mM Tris pH 7.5, 150 mM KCl, 3 mM MgCl2, 0.01% Triton X-100, 500 ug/ml BSA, 20 U/ml SUPERase-In, 4 C; UNK is unkempt and MSI1 is Musashi-1; names of the RNAs are library labels; protein concentration not given here; high values mean tight binding

Chain of UniProt Q61474 (Q61474 whole entry): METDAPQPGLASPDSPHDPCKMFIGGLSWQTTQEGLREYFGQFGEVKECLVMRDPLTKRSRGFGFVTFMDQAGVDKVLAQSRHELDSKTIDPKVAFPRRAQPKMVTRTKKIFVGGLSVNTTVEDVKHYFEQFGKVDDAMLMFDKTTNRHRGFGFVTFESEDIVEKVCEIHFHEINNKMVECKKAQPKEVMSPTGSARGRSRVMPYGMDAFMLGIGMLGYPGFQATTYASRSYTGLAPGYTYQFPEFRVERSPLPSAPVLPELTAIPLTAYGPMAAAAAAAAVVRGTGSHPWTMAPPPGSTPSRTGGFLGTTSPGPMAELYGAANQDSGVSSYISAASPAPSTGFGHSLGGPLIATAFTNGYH

Row | Binder | binding signal
1 | B1 | 0.441 enrichment R
2 | B2 | 0.576 enrichment R
3 | B3 | 0.758 enrichment R
4 | B4 | 0.542 enrichment R
5 | B5 | 0.242 enrichment R
6 | B6 | 0.394 enrichment R
7 | B7 | 0.303 enrichment R
8 | B8 | 0.378 enrichment R
9 | B9 | 0.915 enrichment R
10 | B10 | 0.511 enrichment R
11 | B11 | 0.382 enrichment R
12 | B12 | 0.848 enrichment R
13 | B13 | 0.43 enrichment R
14 | B14 | 0.274 enrichment R

From publication PMC12136788
